The test relates to HEK293 cells. The test is described as follows: Luminescent Cytotoxicity Assay (CytoTox-Glo) after transfection with GluN1 and GluN2A or GluN2B constructs. It is filed as cell-based, human. To be noted: combined expression with GluN1, 48 h after transfection. On the procedure: HEK293 Cell Culture HEK293 cells were cultured in Dulbecco's Modified Eagle Medium (DMEM, Gibco™, 41965-039) supplement with 10% Fetal Bovine Serum (FBS, Gibco™, 10270), 1% Sodium Pyruvate (Gibco™, 11360070), 1% MEM NEAA (Gibco™, 11140035) and 0.5% Penicillin-Streptomycin (P-S; Sigma, P0781) and Passage15-25 were used for experiments.
To test the cytotoxicity of compounds according to the present invention, HEK293 cells (70-80% confluent) were transfected 24 hours after plating with expression vectors for both GluN1 and GluN2A or GluN2B, respectively (1:1; 2 μg plasmids in total per 6-cm dishes) with Lipofectamine 2000 according to manufacturer's instructions. The relative number of dead cells in the population at the indicated time points after transfection was measured with the CytoTox-Glo™ Cytotoxicity assay (Promega, G9290) according to manufacturer's instruction with minor modification. Briefly, 10% of total medium were mixed with 10 μL AAF-amino luciferin to reach a final volume at 200 μL with water, the dead cell relative luminescence units (DRLU) was measured by GloMax (Promega) in a 96 well white bottom polystyrene microplate (Corning Costar®, 3912). After all the measurements, lysis reagents have been added to the cells and 10% of lysate was used for the total cell relative luminescence units (TRLU) measurement. Cell death was calculated by the following equations: […]

For one molecule, cell death results are on record in US20230340060A1, “NOVEL MEANS TO PREDICT AND MANIPULATE NMDA RECEPTOR-MEDIATED TOXICITY” (FundaMental Pharma GmbH, priority 2020, published 2023).

B1: SEQ ID NO:41: rat GluN2A deletion mutant lacking only the sequence motif of SEQ ID NO:1 (protein)
chain: MGRLGYWTLLVLPALLVWRDPAQNAAAEKGPPALNIAVLLGHSHDVTERELRNLWGPEQATGLPLDVNVVALLMNRTDPKSLITHVCDLMSGARIHGLVFGDDTDQEAVAQMLDFISSQTFIPILGIHGGASMIMADKDPTSTFFQFGASIQQQATVMLKIMQDYDWHVFSLVTTIFPGYRDFISFIKTTVDNSFVGWDMQNVITLDTSFEDAKTQVQLKKIHSSVILLYCSKDEAVLILSEARSLGLTGYDFFWIVPSLVSGNTELIPKEFPSGLISVSYDDWDYSLEARVRDGLGILTTAASSMLEKFSYIPEAKASCYGQAEKPETPLHTLHQFMVNVTWDGKDLSFTEEGYQVHPRLVVIVLNKDREWEKVGKWENQTLSLRHAVWPRYKSFSDCEPDDNHLSIVTLEEAPFVIVEDIDPLTETCVRNTVPCRKFVKINNSTNEGMNVKKCCKGFCIDILKKLSRTVKFTYDLYLVTNGKHGKKVNNVWNGMIGEVVYQRAVMAVGSLTINEERSEVVDFSVPFVETGISVMVSRSNGTVSPSAFLEPFSASVWVMMFVMLLIVSAIAVFVFEYFSPVGYNRNLAKGKAPHGPSFTIGKAIWLLWGLVFNNSVPVQNPKGTTSKIMVSVWAFFAVIFLASYTANLAAFMIQEEFVDQVTGLSDKKFQRPHDYSPPFRFGTVPNGSTERNIRNNYPYMHQYMTRFNQRGVEDALVSLKTGKLDAFIYDAAVLNYKAGRDEGCKLVTIGSGYIFASTGYGIALQKGSPWKRQIDLALLQFVGDGEMEELETLWLTGICHNEKNEVMSSQLDIDNMAGVFYMLAAAMALSLITFIWEHLFYWKLRFCFTGVCSDRPGLLKKKSPDFNLTGSQSNMLKLLRSAKNISNMSNMNSSRMDSPKRATDFIQRGSLIVDMVSDKGNLIYSDNRSFQGKDSIFGDNMNELQTFVANRHKDNLSNYVFQGQHPLTLNESNPNTVEVAVSTESKGNSRPRQLWKKSMESLRQDSLNQNPVSQRDEKTAENRTHSLKSPRYLPEEVAHSDISETSSRATCHREPDNNKNHKTKDNFKRSMASKYPKDCSDVDRTYMKTKASSPRDKIYTIDGEKEPSFHLDPPQFVENITLPENVGFPDTYQDHNENFRKGDSTLPMNRNPLHNEDGLPNNDQYKLYAKHFTLKDKGSPHSEGSDRYRQNSTHCRSCLSNLPTYSGHFTMRSPFKCDACLRMGNLYDIDEDQMLQETGNPATREEVYQQDWSQNNALQFQKNKLRINRQHSYDNILDKPREIDLSRPSRSISLKDRERLLEGNLYGSLFSVPSSKLLGNKSSLFPQGLEDSKRSKSLLPDHASDNPFLHTYGDDQRLVIGRCPSDPYKHSLPSQAVNDSYLRSSLRSTASYCSRDSRGHSDVYISEHVMPYAANKNTMYSTPRVLNSCSNRRVYKKMPSIESDV
modifications: GluN2A LACK SEQ ID 1, Q00959, NMDE1_RAT
Regarding B1, the cell death entry is recorded as “much lower level of cell death”. Also, where the note is “listed as GluN2A: lacking SEQ ID NO:1”, the cell death result is “substantially lost their capacity to induce cell death”.
